# In the supplement of paper PMC8728848:
# This is one part of the list.
# B1: OGAA (protein)
# chain: MVQKESQATLEERESELSSNPAASAGASLEPPAAPAPGEDNPAGAGGAAVAGAAGGARRFLCGVVEGFYGRPWVMEQRKELFRRLQKWELNTYLYAPKDDYKHRMFWREMYSVEEAEQLMTLISAAREYEIEFIYAISPGLDITFSNPKEVSTLKRKLDQVSQFGCRSFALLFADIDHNMCAADKEVFSSFAHAQVSITNEIYQYLGEPETFLFCPTEYCGTFCYPNVSQSPYLRTVGEKLLPGIEVLWTGPKVVSKEIPVESIEEVSKIIKRAPVIWDNIHANDYDQKRLFLGPYKGRSTELIPRLKGVLTNPNCEFEANYVAIHTLATWYKSNMNGVRKDVVMTDSEDSTVSIQIKLENEGSDEDIETDVLYSPQMALKLALTEWLQEFGVPHQY
# Tests used:
# Test in all cases: glycan array binding signal (z-score within array); higher = stronger binding
# Conditions in all cases: glycan notation: IUPAC condensed, linker removed
# [1] = target: GalNAc3S(b1-4)[Fuc(a1-3)]GlcNAc
# Outline: (§1)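 Columns mapping to the same glycan were averaged after glycan names were converted to IUPAC-condensed notation. The data come from 3228 arrays in the Consortium for Functional Glycomics database, limited to those with an available protein sequence. Binding is reported as a within-array Z-score averaged across arrays of one protein sequence and across linkers.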
# GalNAc4S6S(b1-4)GlcNAc = target: GalNAc4S6S(b1-4)GlcNAc
# Outline: as §1
# GalNAc6S(b1-4)GlcNAc = target: GalNAc6S(b1-4)GlcNAc
# Outline: as §1
# Glc(a1-4)Glc = target: Glc(a1-4)Glc
# Outline: as §1
# [2] = target: Glc(a1-4)Glc(a1-4)Glc(a1-4)Glc
# Outline: as §1
# Glc(a1-6)Glc(a1-6)Glc = target: Glc(a1-6)Glc(a1-6)Glc
# Outline: as §1
# [3] = target: Glc(a1-6)Glc(a1-6)Glc(a1-6)Glc
# Outline: as §1
# Glc(b1-4)Glc = target: Glc(b1-4)Glc
# Outline: as §1
# Glc(b1-6)Glc = target: Glc(b1-6)Glc
# Outline: as §1
# GlcA(b1-3)Gal = target: GlcA(b1-3)Gal
# Outline: as §1
# GlcA(b1-3)GlcNAc = target: GlcA(b1-3)GlcNAc
# Outline: as §1
# GlcA(b1-6)Gal = target: GlcA(b1-6)Gal
# Outline: as §1
# [4] = target: GlcA3S(b1-3)Gal(b1-4)GlcNAc(b1-2)Man
# Outline: as §1
# [5] = target: GlcA3S(b1-3)Gal(b1-4)GlcNAc(b1-3)Gal(b1-4)Glc
# Outline: as §1
# [6] = target: GlcNAc(a1-3)Gal(b1-4)GlcNAc
# Outline: as §1
# [7] = target: GlcNAc(a1-4)Gal(b1-3)GlcNAc
# Outline: as §1
# [8] = target: GlcNAc(a1-4)Gal(b1-4)GalNAc
# Outline: as §1
# [9] = target: GlcNAc(a1-4)Gal(b1-4)GlcNAc
# Outline: as §1
# [10] = target: GlcNAc(a1-4)Gal(b1-4)GlcNAc(b1-3)Gal(b1-4)Glc
# Outline: as §1
# [11] = target: GlcNAc(a1-4)Gal(b1-4)GlcNAc(b1-3)Gal(b1-4)GlcNAc
# Outline: as §1
# [12] = target: GlcNAc(a1-4)Gal(b1-4)GlcNAc(b1-3)Gal(b1-4)GlcNAc(b1-3)Gal(b1-4)GlcNAc
# Outline: as §1
# [13] = target: GlcNAc(a1-4)Gal(b1-4)GlcNAc(b1-3)Gal(b1-4)[Fuc(a1-3)]GlcNAc(b1-3)Gal(b1-4)[Fuc(a1-3)]GlcNAc
# Outline: as §1
# [14] = target: GlcNAc(a1-6)Gal(b1-4)GlcNAc
# Outline: as §1
# [15] = target: GlcNAc(b1-2)Gal(b1-3)GalNAc
# Outline: as §1
# [16] = target: GlcNAc(b1-2)Man(a1-3)[GlcNAc(b1-2)Man(a1-6)]Man(b1-4)GlcNAc(b1-4)GlcNAc
# Outline: as §1
# [17] = target: GlcNAc(b1-2)Man(a1-3)[GlcNAc(b1-2)Man(a1-6)]Man(b1-4)GlcNAc(b1-4)[Fuc(a1-6)]GlcNAc
# Outline: as §1
# [18] = target: GlcNAc(b1-2)Man(a1-3)[GlcNAc(b1-4)][GlcNAc(b1-2)Man(a1-6)]Man(b1-4)GlcNAc(b1-4)GlcNAc
# Outline: as §1
# [19] = target: GlcNAc(b1-2)Man(a1-3)[GlcNAc(b1-4)][GlcNAc(b1-2)Man(a1-6)]Man(b1-4)GlcNAc(b1-4)[Fuc(a1-6)]GlcNAc
# Outline: as §1
# [20] = target: GlcNAc(b1-2)[GlcNAc(b1-4)]Man(a1-3)[GlcNAc(b1-2)Man(a1-6)]Man(b1-4)GlcNAc(b1-4)GlcNAc
# Outline: as §1
# [21] = target: GlcNAc(b1-2)[GlcNAc(b1-4)]Man(a1-3)[GlcNAc(b1-4)][GlcNAc(b1-2)Man(a1-6)]Man(b1-4)GlcNAc(b1-4)GlcNAc
# Outline: as §1
# [22] = target: GlcNAc(b1-2)[GlcNAc(b1-4)]Man(a1-3)[GlcNAc(b1-4)][GlcNAc(b1-2)[GlcNAc(b1-6)]Man(a1-6)]Man(b1-4)GlcNAc(b1-4)GlcNAc
# Outline: as §1
# [23] = target: GlcNAc(b1-2)[GlcNAc(b1-4)]Man(a1-3)[GlcNAc(b1-4)][GlcNAc(b1-2)[GlcNAc(b1-6)]Man(a1-6)]Man(b1-4)GlcNAc(b1-4)[Fuc(a1-6)]GlcNAc
# Outline: as §1
# [24] = target: GlcNAc(b1-2)[GlcNAc(b1-6)]Man(a1-6)[GlcNAc(b1-2)Man(a1-3)]Man(b1-4)GlcNAc(b1-4)GlcNAc
# Outline: as §1
# [25] = target: GlcNAc(b1-2)[GlcNAc(b1-6)]Man(a1-6)[GlcNAc(b1-2)Man(a1-3)]Man(b1-4)GlcNAc(b1-4)[Fuc(a1-6)]GlcNAc
# Outline: as §1
# [26] = target: GlcNAc(b1-2)[GlcNAc(b1-6)]Man(a1-6)[GlcNAc(b1-4)][GlcNAc(b1-2)Man(a1-3)]Man(b1-4)GlcNAc(b1-4)GlcNAc
# Outline: as §1
# GlcNAc(b1-3)Fuc = target: GlcNAc(b1-3)Fuc
# Outline: as §1
# GlcNAc(b1-3)Gal = target: GlcNAc(b1-3)Gal
# Outline: as §1
# [27] = target: GlcNAc(b1-3)Gal(b1-3)GalNAc
# Outline: as §1
binder,measurement,setting,value
B1,glycan array binding signal (z-score),[1],-0.054
same,glycan array binding signal (z-score),GalNAc4S6S(b1-4)GlcNAc,-0.099
same,glycan array binding signal (z-score),GalNAc6S(b1-4)GlcNAc,-0.082
same,glycan array binding signal (z-score),Glc(a1-4)Glc,-0.014
same,glycan array binding signal (z-score),[2],0.179
same,glycan array binding signal (z-score),Glc(a1-6)Glc(a1-6)Glc,0.016
same,glycan array binding signal (z-score),[3],-0.081
same,glycan array binding signal (z-score),Glc(b1-4)Glc,-0.071
same,glycan array binding signal (z-score),Glc(b1-6)Glc,-0.129
same,glycan array binding signal (z-score),GlcA(b1-3)Gal,-0.051
same,glycan array binding signal (z-score),GlcA(b1-3)GlcNAc,-0.042
same,glycan array binding signal (z-score),GlcA(b1-6)Gal,-0.108
same,glycan array binding signal (z-score),[4],-0.052
same,glycan array binding signal (z-score),[5],-0.025
same,glycan array binding signal (z-score),[6],-0.092
same,glycan array binding signal (z-score),[7],-0.011
same,glycan array binding signal (z-score),[8],-0.102
same,glycan array binding signal (z-score),[9],-0.081
same,glycan array binding signal (z-score),[10],-0.078
same,glycan array binding signal (z-score),[11],0.022
same,glycan array binding signal (z-score),[12],-0.09
same,glycan array binding signal (z-score),[13],0.075
same,glycan array binding signal (z-score),[14],-0.081
same,glycan array binding signal (z-score),[15],-0.094
same,glycan array binding signal (z-score),[16],-0.07
same,glycan array binding signal (z-score),[17],-0.042
same,glycan array binding signal (z-score),[18],-0.118
same,glycan array binding signal (z-score),[19],-0.068
same,glycan array binding signal (z-score),[20],0.02
same,glycan array binding signal (z-score),[21],-0.083
same,glycan array binding signal (z-score),[22],-0.071
same,glycan array binding signal (z-score),[23],-0.11
same,glycan array binding signal (z-score),[24],-0.086
same,glycan array binding signal (z-score),[25],-0.017
same,glycan array binding signal (z-score),[26],-0.141
same,glycan array binding signal (z-score),GlcNAc(b1-3)Fuc,-0.112
same,glycan array binding signal (z-score),GlcNAc(b1-3)Gal,-0.049
same,glycan array binding signal (z-score),[27],-0.053
